Measured values as given in PMC4336329 (PLoS ONE, 2015).
The campaign covered roughly 310,000 compounds. About 14,000 (4.5%) showed an effect of 50% or more. Effects have a minus sign here. The list shows a part of the results.

Each compound was assayed against human ether-à-go-go-related gene (hERG) potassium channel (human, UniProt Q12809) (assay: primary screen, population patch clamp on CHO cells stably expressing hERG).
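Note: peak tail current of the secondary pulse compared with the same well before compound.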

Sequence of human ether-à-go-go-related gene (hERG) potassium channel (Q12809 whole entry, looked up): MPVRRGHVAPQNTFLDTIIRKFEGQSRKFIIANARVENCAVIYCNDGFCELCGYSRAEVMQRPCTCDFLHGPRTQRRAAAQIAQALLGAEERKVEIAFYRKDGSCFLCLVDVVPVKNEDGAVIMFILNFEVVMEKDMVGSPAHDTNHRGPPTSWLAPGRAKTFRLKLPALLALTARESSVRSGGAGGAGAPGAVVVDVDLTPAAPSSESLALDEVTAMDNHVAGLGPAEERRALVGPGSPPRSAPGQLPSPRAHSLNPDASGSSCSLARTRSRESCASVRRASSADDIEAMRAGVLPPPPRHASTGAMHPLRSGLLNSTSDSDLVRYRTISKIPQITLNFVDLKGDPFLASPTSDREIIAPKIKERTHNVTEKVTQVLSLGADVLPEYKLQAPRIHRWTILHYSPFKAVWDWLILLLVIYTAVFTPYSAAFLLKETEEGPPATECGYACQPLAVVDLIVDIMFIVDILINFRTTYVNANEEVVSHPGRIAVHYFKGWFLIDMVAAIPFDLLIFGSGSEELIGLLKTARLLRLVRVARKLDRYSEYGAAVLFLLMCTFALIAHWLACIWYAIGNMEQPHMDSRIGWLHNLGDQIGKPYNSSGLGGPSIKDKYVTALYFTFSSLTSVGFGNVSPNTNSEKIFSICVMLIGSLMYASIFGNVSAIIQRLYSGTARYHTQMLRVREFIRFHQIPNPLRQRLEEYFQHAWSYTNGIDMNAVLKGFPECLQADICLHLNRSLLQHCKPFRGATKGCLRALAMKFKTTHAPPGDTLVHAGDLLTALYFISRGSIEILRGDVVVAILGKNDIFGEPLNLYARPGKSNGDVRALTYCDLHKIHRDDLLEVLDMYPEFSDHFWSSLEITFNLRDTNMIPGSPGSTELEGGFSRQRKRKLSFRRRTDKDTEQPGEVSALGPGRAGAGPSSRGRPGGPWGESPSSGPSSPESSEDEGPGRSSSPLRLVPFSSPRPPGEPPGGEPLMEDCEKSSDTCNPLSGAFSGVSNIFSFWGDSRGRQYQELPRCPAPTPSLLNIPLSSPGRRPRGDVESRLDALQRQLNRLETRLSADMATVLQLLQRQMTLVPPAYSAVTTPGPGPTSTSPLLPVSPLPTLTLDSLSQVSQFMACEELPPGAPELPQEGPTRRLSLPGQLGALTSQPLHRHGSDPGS

Structure (SMILES)	hERG current change (%, negative = inhibition) at 10uM [%]
CCC(=O)Nc1sc2c(c1C(=O)OC)CCN(Cc1ccccc1)C2.Cl	-62.9
Cc1ccc(NC(=S)Nc2cc(C(=O)O)ccc2N2CC3CC(C2)c2cccc(=O)n2C3)cc1C (centres unmarked)	0.571
CCCCCn1c(SCC(=O)CC(=O)OCC)nc2cc(C(=O)N3CCC(C(N)=O)CC3)ccc2c1=O	-17.7
COc1ccc(CNS(=O)(=O)c2ccc3oc(C(=O)O)c(C)c3c2)cc1	-2.57
CCCc1c(O)nc(SCc2ccccc2)[nH]c1=O	0.68
CC[NH+](CC)CC.Nc1ncnc2c1ncn2C1OC(COP(=O)([O-])O)C(O)C1O (centres unmarked)	19.1
Cn1c(SCc2ccc(Cl)cc2)nc(C(F)(F)F)cc1=O	36.8
CN(C)C(=O)CSc1nnc([C@@H](N)Cc2ccccc2)o1.Cl	-2.63
Cc1cccc(C(=O)NC(=S)Nc2cccc3nc(C)ccc23)c1	4.65
O=C(CSc1nnc2ccccn12)NCCc1ccc(F)cc1	5.44
Cc1ccc(C)c(OCc2nnc(NC(=O)c3ccco3)s2)c1	-1.45
Cc1ccccc1N=C1SCCN1C(=O)CN1C(=O)NC2(CCCC2)C1=O	-21.7
Cc1ccc(CN2CCN(/N=C/c3cccn3C)CC2)c(C)c1	-33.7
CCn1c2ccc(F)cc2c2nnc(SCCN3CCOCC3)nc21	-41.2
COc1cccc(CNCC(O)COc2ccc(C(=O)c3ccccc3)cc2)c1 (centres unmarked)	-34.7
CCCCC(=O)NCCNc1nc2c(c(=O)n(C)c(=O)n2C)n1Cc1ccc(F)cc1	0.805
OCCNc1nc(NCCC2=CCCCC2)nc(N2CCOCC2)n1	-24.2
CCN(CC)c1ccc(/C=N/NC(=O)CNC(=O)/C=C/c2ccco2)cc1	-33.7
C/C1=C\CCC2C(/C=C(\C)CC1)OC(=O)C2CN1CCCCC1 (centres unmarked)	9.46
COc1cc(CNc2ccc(O)cc2)cc(Br)c1OCc1ccccc1	28.6
CC(=O)c1ccc(S(=O)(=O)Oc2ccc(-c3ccc(C(=O)O)cc3)cc2)cc1	13.4
CCC(Oc1ccccc1)C(=O)OCC(=O)N(CC)c1c(N)n(Cc2ccccc2)c(=O)[nH]c1=O (centres unmarked)	11.3
CCC(=O)Nc1nn(C)c2nc3c(C)cccc3cc12	7.43

Structure (SMILES)	hERG current change (%, negative = inhibition) at 10uM [%]
NS(=O)(=O)c1ccc(CNC(=O)Cc2cccs2)cc1	24.8
CCOc1ccccc1OCCCC(=O)Nc1cccc(-n2cnnn2)c1C	-9.18
COc1ccc(N2CCN(CC(O)COc3ccc(C)cc3C)CC2)cc1.Cl (centres unmarked)	-67.8
CC1(C)Cc2c(cnn2-c2ccc(F)cc2)C(NC(=O)C(C)(C)O)C1 (centres unmarked)	-0.859
CC(=O)[C@@H]1[C@@H]2C(=O)N(c3ccc(F)c(Cl)c3)C(=O)[C@@H]2C2c3ccccc3C=CN21 (some centres unmarked)	9.11
OCCN1CN=C(Nc2nc3ccccc3o2)NC1	3.92
CC(C)c1cc[n+](-c2nc([O-])sc2C=O)cc1	-0.536
CCCCN(CCCC)Cc1ccc(C(=O)NNC(=O)Nc2ccccc2)o1	-10.6
O=C(COC(=O)/C=C/c1ccccc1)NCc1ccccc1Cl	17.8
CCOC(=O)c1c(C)n(C)c2ccc(OCC(N)=O)cc12	7.9
C=CCNc1nc(Nc2ccc(OC)cc2)nc(OCC)n1	-3.74
NNc1nc(-c2ccccc2)c2cc(Cl)ccc2n1	-11.3
Cc1ccc2nc(C)cc(N/N=C/c3cccc(O)c3)c2c1	12.4
COC(=O)c1ccc([C@@H](O)[C@H](C)C(=O)CC(=O)OC(C)(C)C)cc1	11.4
O=C(C1CCN(S(=O)(=O)c2cc(Cl)ccc2Cl)CC1)N1CCOCC1	4.29
O=C(CCl)NC(=O)NC12CC3CC(CC(C3)C1)C2	10.7
COCCCNC(=O)/C(C#N)=C/c1c(N2CCN(c3cccc(Cl)c3)CC2)nc2c(C)cccn2c1=O	5.69
C=CCNC(=S)N1CCN(CCN=CC2=C(O)CC(c3ccco3)CC2=O)CC1 (centres unmarked)	-25.8
O=C(Cn1nnc2ccccc21)Nc1ccc(Cl)cn1	8.68
COc1ccc(S(=O)(=O)/C(C#N)=C/Nc2ccc(NC(C)=O)cc2)cc1	13.6
CC(=O)Nc1cccc(/C(C)=N/NC(=O)c2ccccc2Cl)c1	15.8
O=C(Cn1cc([N+](=O)[O-])ccc1=O)NCc1ccc(Cl)cc1Cl	-5.73
CCOc1ccc(C(=O)NCc2ccccn2)cc1	6.87

Structure (SMILES)	hERG current change (%, negative = inhibition) at 10uM [%]
COc1ccc(-c2cc(C(=O)O)no2)cc1	23.5
O=C1c2ccccc2C(=O)c2c1cccc2-n1nnc2ccccc21	11.7
Cc1ccccc1NC(=O)CCCCC(=O)Nc1ccccc1C	15.5
CCC(=O)OC1(C)C(=O)C=C2C=C(c3ccsc3)OC=C2C1=O (centres unmarked)	6.52
Cc1ccc(-c2cccc(CN3CCN(C(C)C)C(CCO)C3)c2)o1 (centres unmarked)	13.4
COc1ccc2c(c1)CCc1c(C(=O)NCc3ccc(Cl)cc3)noc1-2	19.9
CCOc1ccccc1NC(=O)CNC(=O)CNC(=O)Cc1ccccc1	22.4
COCCNC(=O)c1cc2nc3c(c(C(F)(F)F)n2n1)CCc1ccccc1-3	21.6
COc1ccc(-c2cc(C(=O)Nc3sc4c(c3C#N)CCCC4)c3ccccc3n2)cc1	-4.56
C=C(C)CSc1nc2ncccc2[nH]1	0.0608
COc1cc(C=C(C(C)=O)C(C)=O)ccc1O	12.6
COC(=O)c1cc2occc2n1Cc1nc(-c2ccc(Cl)cc2)oc1C	11.4
Cc1cc(CN2CCN(CC(=O)Nc3cc(C(F)(F)F)ccc3-n3cncn3)CC2)no1	-69.8
Cc1ccc(Oc2ccccc2/C=C2\SC(=O)N(C)C2=O)cc1	4.1
Cc1c(C(=O)N2CCOCC2)c(S(=O)(=O)Nc2ccccc2F)c(C)n1C	6.11
COc1ccc(-n2c(O)c(C(C)=NCCN3CCNCC3)c(=O)[nH]c2=O)cc1	10.8
O=C1Cc2cc(NS(=O)(=O)c3cc(F)ccc3F)cc3c2N1CCC3	-2.87
CN1C(=S)SC(/[N+]([O-])=C/c2c(F)cccc2Cl)C1(C)C (centres unmarked)	16.1
CC1(C)CC(=O)C2=C(C1)Nc1ccccc1NC2c1nc2ccccc2[nH]1 (centres unmarked)	2.22
COc1cc(C(C)=O)ccc1OCC(O)Cn1nc(C)c(Br)c1C (centres unmarked)	-7
CN(CC(=O)Nc1ccc(Cl)c(S(=O)(=O)N(C)C)c1)Cc1ccccc1	-7.18
O=C1c2ccccc2C(=O)N1CCOCCN1C(=O)c2ccccc2C1=O	0.531
N#CCCN(Cc1cccs1)C(=O)Nc1ccc(F)cc1	-3.21

Structure (SMILES)	hERG current change (%, negative = inhibition) at 10uM [%]
Cc1ccc(C(=O)O/N=C2/CC3CCC2(C)[C@@]3(C)CBr)cc1 (some centres unmarked)	6.67
CCC(NC(=O)Nc1ccc(O)cc1)(C(F)(F)F)C(F)(F)F	19.3
Cc1nc(=S)c2ccccc2[nH]1	11.9
CCOCCCNC(=S)N(CCN(CC)CC)Cc1cc2cc3c(cc2[nH]c1=O)OCCO3	7.75
Cc1ccc(-n2nc3c(=O)n(CCCC(=O)NCc4ccc(F)cc4)nc(C)c3c2C)cc1	-76.5
CCOC(=O)C1Nc2ccc(C)cc2C2C=CCC12 (centres unmarked)	3.54
COC(=O)c1c(NC(=O)CS(=O)(=O)c2ccccc2)sc(C)c1C	-21.6
CC1CCN(c2ncnc3ccccc23)CC1.Cl	-11.8
C=CCNC(=O)CSc1nnc(-c2cccs2)o1	-0.265
CCOC(=O)C1=C(CN2CCOCC2)NC(=O)NC1c1cccc([N+](=O)[O-])c1 (centres unmarked)	-14.8
F[B-](F)(F)F.OCCC[NH+]=c1cc(-c2ccccc2)oc2ccc(Cl)cc12	-79.1
CCCN(C(=O)c1c(CC)noc1C)c1c(N)n(Cc2ccccc2)c(=O)[nH]c1=O	4.93
O=C(O)CSc1nc(-c2ccc(Cl)cc2)nc2c1oc1ccccc12	3.82
Cc1cc(C(=O)CN2C(=O)CCC2=O)c(C)n1Cc1ccccc1	-2.44
NC(=O)COC(=O)C1c2ccccc2Oc2ccccc21	-0.77
CCCCN(C)c1ccc([N+](=O)[O-])cc1	-1.32
COC(=O)c1ccc(NC(=S)NCCC2=CCCCC2)cc1	-4.67
Cc1ccc2nc(NNC(=O)c3ccc4c(c3)OCCO4)sc2c1	8.39
COCCOc1ccc(C(F)(F)F)cc1NC(=O)CN1C(=O)NC(C)(c2ccc3c(c2)OCO3)C1=O (centres unmarked)	-4.8
COc1cccc(CNC(=O)C2CCCN(c3nn4c(=O)cc(C)nc4s3)C2)c1OC (centres unmarked)	5.44
